The list shows a part of the results.
Experiments:
[1] = system: HSkMC (human skeletal muscle cells); assay: cytotoxicity call (relative viability < 0.9); conditions: 10 µM
[2] = system: HepG2; assay: cytotoxicity call (relative viability < 0.9); conditions: 10 µM
[3] = system: S. aureus RN4220; assay: growth inhibition call (relative growth <= 0.2); conditions: 50 µM

COc1ccc(NC(=O)Nc2ccc3c(c2)C(=O)N([C@H](C)CO)C[C@H](C)[C@@H](CN(C)Cc2ccc(C(=O)O)cc2)OCCCC[C@@H](C)O3)cc1
inactive: cytotoxicity call [1] | cytotoxicity call [2] | growth inhibition call [3]

O[C@H]([C@H](O)[C@@H]1CO1)[C@H]1CO1
inactive: cytotoxicity call [1] | cytotoxicity call [2] | growth inhibition call [3]

CCCNC(=O)N(C)C[C@@H]1Oc2cc(C#Cc3cccc(F)c3)ccc2S(=O)(=O)N([C@H](C)CO)C[C@H]1C
inactive: cytotoxicity call [1] | cytotoxicity call [2] | growth inhibition call [3]

C[C@@H]1CCCCO[C@H](CN(C)C(=O)Nc2cccc3ccccc23)[C@H](C)CN([C@@H](C)CO)C(=O)c2cc(NC(=O)Nc3ccc(F)cc3)ccc2O1
inactive: cytotoxicity call [1] | cytotoxicity call [2] | growth inhibition call [3]

COc1ccc(S(=O)(=O)N(C)C[C@@H]2OCCCC[C@@H](C)Oc3ccc(NC(=O)Nc4c(C)noc4C)cc3C(=O)N([C@@H](C)CO)C[C@H]2C)cc1
inactive: cytotoxicity call [1] | cytotoxicity call [2] | growth inhibition call [3]

COC(=O)[C@H](Cc1ccccc1)N1CC2=CCCC=C[C@H]2[C@@H]1[C@@H](O)CCn1cc(-c2ccc(C(=O)NO)cc2)nn1
inactive: cytotoxicity call [1] | cytotoxicity call [2] | growth inhibition call [3]

CCCNC(=O)Nc1ccc2c(c1)C(=O)N(C)C[C@@H](OC)[C@H](C)CN(C(=O)C1CCOCC1)[C@H](C)CO2
inactive: cytotoxicity call [1] | cytotoxicity call [2] | growth inhibition call [3]

COc1ccccc1O
inactive: cytotoxicity call [1] | cytotoxicity call [2] | growth inhibition call [3]

COc1cc(C(=O)N2CCN(CCN3C(=O)c4cccc5cccc(c45)C3=O)CC2)cc(OC)c1OC
inactive: cytotoxicity call [1] | cytotoxicity call [2] | growth inhibition call [3]

C[C@@H]1CN([C@H](C)CO)C(=O)c2cccc(NC(=O)Nc3cccc4ccccc34)c2O[C@@H]1CN(C)S(=O)(=O)c1ccc(F)cc1
inactive: cytotoxicity call [1] | cytotoxicity call [2] | growth inhibition call [3]

From the antibiotic and cytotoxicity screens of Wong et al. (2023)
